Results published in patent US11648310B2, “Combination of anti-FGFR4-antibody and bile acid sequestrant” (Daiichi Sankyo Europe GmbH, priority 2015, dated 2023).

How the values were obtained:
Cyp7A1 (liver) = assay: Liver Cyp7A1 RNA expression by quantitative real-time PCR at end of study; type: in vivo, cynomolgus monkey; settings: all treatment groups, versus untreated control; FIG. 7
Text: (§1) In order to find ort whether any toxic side effects of FGFR4 inhibition are due to elevated bile acid levels, the effect of co-administering agents which interfere with bile acid levels was examined. […] For reducing bile acid levels, the bile acid sequestrant colestyramine (Quantalan™) was used. Ursodeoxycholic acid (Ursofalk™) was used as a second compound for increasing the transport of bile acids out of the liver. Ursodeoxycholic acid is a hydrophilic bile acid that increases bile acid transporter expression and plasma membrane translocation in the liver, (palliative compounds 1 and 2).
(§2) The study design included four cynomolgus monkeys (two male, two female) per group. The animals were assigned to the following groups
(§3) Duration and frequency: three administrations at 7-day interval (i.e. day 0, day 7 and day 14). The first day of dosing was designated as day 0. […]
(§4) The test animals were examined for clinical signs, liver enzymes, bile acid levels and FGF19. FGF19 serum levels were determined using quantiquine human FGF19 ELISA from RND according to the manufacturer's instructions. RNA expression of cyno liver and ileum samples for Cyp7A1 (liver) and FGF19 (Ileum) were determined using the High-Capacity RNA-to-cDNA Kit (Applied Biosystems/Life Technologies) followed by subsequent quantitative real-time PCR. […]

FGF19 (Ileum) = assay: Ileum FGF19 RNA expression by quantitative real-time PCR at end of study; type: in vivo, cynomolgus monkey; settings: FGFR4 antibody alone; FIG. 8
Text: as §1, §2, §3, §4

[1] = cynomolgus monkey, in vivo
Text: FIG. 6: Human IgG in monkey serum. The results shown were obtained for the combination of male and female animals. […] In order to find ort whether any toxic side effects of FGFR4 inhibition are due to elevated bile acid levels, the effect of co-administering agents which interfere with bile acid levels was examined. […] For reducing bile acid levels, the bile acid sequestrant colestyramine (Quantalan™) was used. Ursodeoxycholic acid (Ursofalk™) was used as a second compound for increasing the transport of bile acids out of the liver. Ursodeoxycholic acid is a hydrophilic bile acid that increases bile acid transporter expression and plasma membrane translocation in the liver, (palliative compounds 1 and 2). The study design included four cynomolgus monkeys (two male, two female) per group. The animals were assigned to the following groups [table] Duration and frequency: three administrations at 7-day interval (i.e. day 0, day 7 and day 14). The first day of dosing was designated as day 0. After the last administration, the animals were kept for a treatment-free period of at east 28 days.

cynomolgus monkeys = settings: cynomolgus monkey, in vivo
Text: as §1, §2, §3, §4

B1: U4-3: human anti-FGFR4 antibody, VH SEQ ID NO: 54, VL SEQ ID NO: 62; test item of the monkey study (antibody, V domains shown)
VH: EVQLLESGGGLVQPGGSLRLSCAASGFTFSDYYMSWIRQAPGKGLEWVSTISGSGGSTYYADSVKGRFTISRDNSKNTLYLQMNSLRAEDTAVYYCARLTAYGHVDSWGQGTLVTVSSASTKGPSVFPLAPSS
VL: QSVLTQPPSASGTPGQRVTISCSGSSSNIGTNTVNWYQQLPGTAPKLLIYRNYQRPSGVPDRFSGSKSGTSASLAISGLRSEDEADYYCAAWDDSLSGPHVVFGGGTKLTVLGQP
modifications: U4-3-VH and U4-9-VH; U4-3-VL
notes: test item of the monkey study
- Liver Cyp7A gene expression at study end (Cyp7A1 (liver)): elevated
- FGF19 expression levels in the ileum at end of study (FGF19 (Ileum)): elevated
- Human IgG levels in serum [1]: equal in all treatment groups
- Toxicological parameters (clinical signs, hematology, blood chemistry and histopathology) (cynomolgus monkeys): elevated
- Histopathological examination of the liver (cynomolgus monkeys; iv, 100 mg/kg): minimal bile duct hyperplasia
